Measured values taken from PMC4336329 (PLoS ONE, 2015).
The campaign covered roughly 310,000 compounds. About 2,200 (0.71%) showed an effect of 50% or more. The effect is printed as a negative number. The list shows a part of the results.

What follows are compounds tested against human ether-à-go-go-related gene (hERG) potassium channel (human, UniProt Q12809) (assay: primary screen, population patch clamp on CHO cells stably expressing hERG).
Sequence of human ether-à-go-go-related gene (hERG) potassium channel (Q12809 whole entry, looked up): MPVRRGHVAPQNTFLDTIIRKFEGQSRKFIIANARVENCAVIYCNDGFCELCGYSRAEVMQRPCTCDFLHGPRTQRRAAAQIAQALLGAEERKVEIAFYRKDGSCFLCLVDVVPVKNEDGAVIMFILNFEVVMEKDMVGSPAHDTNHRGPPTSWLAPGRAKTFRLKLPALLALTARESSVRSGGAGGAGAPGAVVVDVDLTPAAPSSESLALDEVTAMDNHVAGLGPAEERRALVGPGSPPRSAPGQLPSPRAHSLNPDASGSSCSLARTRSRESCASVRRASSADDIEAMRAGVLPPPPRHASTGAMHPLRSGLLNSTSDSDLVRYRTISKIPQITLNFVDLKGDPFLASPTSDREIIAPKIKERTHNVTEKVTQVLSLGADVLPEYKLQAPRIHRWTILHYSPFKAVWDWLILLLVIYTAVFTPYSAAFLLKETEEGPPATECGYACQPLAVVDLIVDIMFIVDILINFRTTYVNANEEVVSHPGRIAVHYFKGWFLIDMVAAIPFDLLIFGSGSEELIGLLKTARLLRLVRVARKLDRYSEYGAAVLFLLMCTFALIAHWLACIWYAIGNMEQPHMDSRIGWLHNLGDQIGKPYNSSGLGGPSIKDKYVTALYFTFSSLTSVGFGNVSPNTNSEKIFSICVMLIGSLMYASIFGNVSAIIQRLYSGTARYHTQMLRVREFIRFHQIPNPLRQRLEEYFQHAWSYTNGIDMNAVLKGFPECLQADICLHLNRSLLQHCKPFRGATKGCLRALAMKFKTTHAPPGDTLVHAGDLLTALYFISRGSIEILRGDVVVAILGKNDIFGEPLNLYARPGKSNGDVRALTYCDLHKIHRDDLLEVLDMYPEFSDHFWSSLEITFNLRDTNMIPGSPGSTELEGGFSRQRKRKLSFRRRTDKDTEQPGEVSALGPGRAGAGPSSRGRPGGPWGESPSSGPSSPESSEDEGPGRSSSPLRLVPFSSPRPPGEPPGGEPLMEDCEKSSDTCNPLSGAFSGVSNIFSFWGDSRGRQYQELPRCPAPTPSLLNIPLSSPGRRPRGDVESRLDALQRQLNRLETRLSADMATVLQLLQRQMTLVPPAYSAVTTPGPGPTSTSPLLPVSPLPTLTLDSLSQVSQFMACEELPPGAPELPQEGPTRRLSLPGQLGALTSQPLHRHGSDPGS

Structure (SMILES)	hERG current change (%, negative = inhibition) at 1uM [%]
S=c1[nH]nc(Cc2ccccc2)n1Cc1ccco1	-3.36
CCn1cc(C(=O)N(C)CC(OC)OC)c(=O)c2cc(S(=O)(=O)N3CCOCC3)ccc21	16.1
c1ccc(-c2ccc(Oc3cc(N4CCOCC4)nc(-c4ccccc4)n3)cc2)cc1	12.3
CCc1ccc(-n2cc(-c3ccc([N+](=O)[O-])cc3)[nH]c2=S)cc1	10.7
CC(=O)Nc1cccc(C2=CC(c3ccco3)n3ncnc3N2)c1 (stereo not shown)	9.29
O=C(CCc1ccccc1)N/N=C\C1CC=CCC1 (stereo not shown)	8.53
O=C(CSc1nnc(-c2ccco2)o1)c1ccc[nH]1	12.4
Cc1nn(-c2ccccc2)c(N2CCCC2)c1/C=C1\N=C(c2ccccc2)OC1=O	10.1
COc1ccccc1-n1c(SCC(=O)Nc2cc(C)on2)nc2c([nH]c3ccccc32)c1=O	6.7
O=c1c2ccccc2nc2n1C(CSc1ccccc1)CS2 (stereo not shown)	10.1
CCc1ccccc1N(C(=O)c1ccco1)C(C(=O)NC1CCCC1)c1cccnc1 (stereo not shown)	3.5
CCCCCC(=O)Nc1cccc(C2=NOC3(C2)C[C@@H](C(N)=O)N(C(=O)Cc2ccc([N+](=O)[O-])cc2)C3)c1 (stereo partly shown)	-25
CCc1ccc(NC(=O)CC2C(=O)NCCN2C(=O)c2ccccc2OC)cc1 (stereo not shown)	15.8
O=C(CCN1C(=O)c2ccccc2C1=O)Nc1cccnc1	-1.64
Nc1c(C(=O)[O-])sc2nc(-c3ccccc3)cc(-c3ccc(Cl)cc3)c12	16.3
C=Cc1ccc(CN2CCCN(Cc3ccc(Cl)cc3)S2(=O)=O)cc1	17.4
COc1cccc(-n2c(CN3CCN(Cc4ccccc4)CC3)nc3ccc([N+](=O)[O-])cc3c2=O)c1	3.16
O=C(CCS(=O)(=O)c1ccc(Br)cc1)N1CCC2(CC1)OCCO2	2.24
COc1ccc(NC(=O)C2CC(=O)N(C(C)C)C2)cc1 (stereo not shown)	14.6
O=C(CSc1nc2ccccc2c(=O)n1CC1CCCO1)NCc1ccc2c(c1)OCO2 (stereo not shown)	9.71
Cc1ccc(-c2nc(C)sc2CC(=O)OCC(=O)Nc2cccc([N+](=O)[O-])c2)cc1	1.98
COC(=O)c1ccccc1SCc1csc(C)n1	14.6

Structure (SMILES)	hERG current change (%, negative = inhibition) at 1uM [%]
CCCCOC(=O)CSC1=C(C#N)C(c2ccccc2OCC)C(C#N)C(=O)N1 (stereo not shown)	17.4
C/C(=N\N=C(N)N)c1ccc(Cl)cc1	-3.88
COc1ccc(COC(=O)C2=C(C)NC(=O)NC2c2cc(OC)ccc2OC)cc1 (stereo not shown)	12.4
CCOC(=O)c1c(=O)n(O)c2ccc(OC)cc2[n+]1[O-]	-2.03
Cc1ccccc1-n1nc2c(c1NC(=O)CC(C)C)CS(=O)C2 (stereo not shown)	6.92
COc1ccc(-n2c(SCC(=O)NCC3CCCO3)nc3c(c2=O)SCC3)cc1OC (stereo not shown)	13.5
C=C(C)CSc1nnc2n(N)c(=O)c3ccccc3n12	14
COc1ccc(/C=C/c2c(-c3ccc(OC)cc3)oc3ccc(-c4ccc(OC)cc4)cc23)cc1	-1.57
O=C(NCc1cccs1)c1ccc2c(c1)ncn2C1CCCC1	-5.32
O=S(=O)(NCCc1ccccc1)c1ccc(Br)cc1	1.72
CCn1cc(-c2ccnc3cc(C(=O)O)nn23)c(C)n1	8.83
COc1ccc(N(C(=O)c2snc(C(N)=O)c2N)C(C(=O)NC2CCCC2)c2cccs2)cc1OC (stereo not shown)	6.13
C=CCNC(=O)N1CCC(n2nccc2NC(=O)CCCc2ccccc2)CC1	-3.3
CC(=NCCCn1ccnc1)c1c(C)[nH]n(-c2ccc([N+](=O)[O-])cc2)c1=O	-17.8
O=C(Cc1ccc2c(c1)OCCO2)N/N=C/c1ccco1	-6.65
CCCCNC(=O)CN1C(=O)NC2(CCOc3ccccc32)C1=O (stereo not shown)	4.81
CCC(C(=O)NC1CCCC1)N(Cc1ccc2c(c1)OCO2)C(=O)c1snc(C(N)=O)c1N (stereo not shown)	1.7
Cc1cc(C(=O)CN2C(=O)NC3(CCCc4ccccc43)C2=O)c(C)n1Cc1ccccc1 (stereo not shown)	9.31
COC(=O)C1=C(c2ccccc2OCc2ccccc2)C[C@@H]2CC[C@H]1N2C(=O)NCc1cccc(F)c1	9.78
Cc1cc(C)c(NC(=O)CN2CCN(C)CC2)c(C)c1	7
O=C(CCS(=O)(=O)c1cccc2nsnc12)NCc1ccccc1Cl	23.3
COCCCN(CC(=O)Nc1ccc(N2CCOCC2)cc1)S(=O)(=O)c1ccc(C)cc1	17.4

Structure (SMILES)	hERG current change (%, negative = inhibition) at 1uM [%]
COC(=O)c1sc(NC(=O)C(C)c2ccccc2)nc1C (stereo not shown)	6.89
O=C(Nc1ccc(Br)cc1)C1CC(O)CN1C(=O)Oc1ccccc1 (stereo not shown)	13.4
COC1CCCCC1NS(=O)(=O)c1ccccc1 (stereo not shown)	12.8
CC(=O)COc1ccc2c(C)c(-c3ccccc3)c(=O)oc2c1	0.992
O=C(NCCCN1CCCC1)c1ccc(CS(=O)(=O)c2c(Cl)cccc2Cl)o1	15.6
CC(CN(C(N)=O)c1ccccc1O)C(=O)O (stereo not shown)	-1.95
CCCc1cc(=O)n2[nH]c(Cc3ccccc3)nc2n1	14
Cn1cc(SCC(=O)NCCc2ccccc2)c2ccccc21	-6.9
CC1(C)NC(=O)N(CC(O)CN(c2ccccc2)S(=O)(=O)c2ccccc2[N+](=O)[O-])C1=O (stereo not shown)	9.96
Cc1ccc(CSCC(=O)NCc2cccnc2)cc1	12.8
CCOC(=O)C1=C(C)NC(SC)=C(C#N)C1CC(C)C (stereo not shown)	2.73
CCCCC(=O)N=c1sc2cc(S(C)(=O)=O)ccc2n1C	3.1
CSCCC(N=C(NS(=O)(=O)c1ccc(C)cc1)c1ccccc1)C(=O)O (stereo not shown)	13.1
CC1SC(c2ccccc2)N(CC(O)c2ccc([N+](=O)[O-])cc2)C1=O (stereo not shown)	-40.7
CCCCOC1(c2ccccc2)NC(=S)NN=C1c1ccccc1 (stereo not shown)	17.8
O=C1c2ccccc2C(Nc2ccccc2)N1Cc1ccc2c(c1)OCO2 (stereo not shown)	7.92
CCN(Cc1cc2ccccc2[nH]c1=O)C(=O)C(C)C	6.86
CC(C)(CNC(=O)/C=C/c1ccc(F)cc1)CNC(=O)/C=C/c1ccc(F)cc1	-6.58
O=C(Cn1nnc2ccccc21)NCc1ccccc1	10.1
O=C(CSc1nnc(Nc2ccccc2F)s1)Nc1cccc(S(=O)(=O)N2CCCCC2)c1	-0.278
Cc1ccc(-c2cc(C(F)F)n3ncc(C(=O)N4CCCc5ccccc54)c3n2)cc1	3.74
CCN(c1ccccc1)S(=O)(=O)c1cc(NC(=O)CSc2n[nH]c(=O)[nH]c2=O)ccc1Cl	16.3

Structure (SMILES)	hERG current change (%, negative = inhibition) at 1uM [%]
CC(=O)Nc1sc2c(c1C(c1ccccn1)N1CCCC1)CCCC2 (stereo not shown)	1.17
O=C(OCc1ccc([N+](=O)[O-])cc1)c1cc(S(=O)(=O)N2CCCCC2)ccc1N1CCOCC1	-77.9
COc1cc(/C=N/N=C2/SCC(=O)N2c2ccc(O)cc2)ccc1O	15.8
CN(c1ccc(C(=O)Nc2ccccc2C(=O)N2CCOCC2)cc1)S(C)(=O)=O	11.6
CN(C)C(=O)Nc1ccc(F)cc1F	8.44
O=C(NCCc1ccc(Cl)cc1)C1CCC(=O)N(C2CCCCCC2)C1 (stereo not shown)	9.01
O=C(Cn1ncc2c1-c1ccccc1OC2)Nc1nc2ccccc2s1	9.68
CCC1(c2ccccc2)NC(=S)N(c2ccc(C)cc2)N1 (stereo not shown)	11.1
O=C(NCc1cccs1)c1cccnc1C(=O)O	9.5
Cc1ccc(NS(=O)(=O)c2ccc(C3CCCCC3)cc2)cc1	1.23
COc1ccc2c(-c3ccccc3)cc(SC(C)C(N)=O)nc2c1 (stereo not shown)	12
CC1CC(C)CN(C(=O)c2ccc(C#N)cc2)C1 (stereo not shown)	6.76
CCN(CC)CCn1c2c(c(SCC(=O)Nc3cc(C)cc(C)c3)nc1=O)CCC2	-15.7
Cn1c(SCc2ccccc2)nnc1-c1ccc(O)cc1	13.2
COc1ccc(CCNC(=O)c2coc3ccccc3c2=O)cc1	19.4
CCOC(=O)CC1COCCN1Cc1cn[nH]c1-c1ccc2c(c1)OCO2 (stereo not shown)	17.3
Cc1cccc(C2c3[nH]c4ccccc4c3CCN2C(=O)c2cn(C)c3ccccc3c2=O)n1 (stereo not shown)	7.02
Cc1nc2ccc(NC(=O)Cc3ccsc3)cc2s1	9.65
COc1ccc2c(C)nc(Nc3nc(C)c(C)c(=O)[nH]3)nc2c1	8.91
CC(OC(=O)CN1C(=O)C2C3C=CC(C4CC34)C2C1=O)C(=O)c1ccccc1 (stereo not shown)	-0.865
Cc1noc(C)c1C(=O)NCCc1c(C)[nH]c2ccccc12	17
COn1c(SCc2cccc(Cl)c2)nc2ccccc2c1=O	3.64
